Consider two molecules from patent publication US20260139049A1 (published 2026).

One test deals with T1, mouse CLDN6 (mouse, UniProt Q9Z262 1-219).
T1 chain: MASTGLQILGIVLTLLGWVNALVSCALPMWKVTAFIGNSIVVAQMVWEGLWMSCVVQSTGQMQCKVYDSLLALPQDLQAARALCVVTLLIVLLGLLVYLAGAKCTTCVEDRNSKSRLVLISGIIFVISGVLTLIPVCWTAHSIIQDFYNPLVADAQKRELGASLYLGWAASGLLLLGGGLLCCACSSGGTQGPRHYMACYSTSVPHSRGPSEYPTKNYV
The test can be described thus: FACS.

The target in test [1] is T2, monkey CLDN6 (Cyno CLDN6) (monkey (Cyno)).
T2 chain: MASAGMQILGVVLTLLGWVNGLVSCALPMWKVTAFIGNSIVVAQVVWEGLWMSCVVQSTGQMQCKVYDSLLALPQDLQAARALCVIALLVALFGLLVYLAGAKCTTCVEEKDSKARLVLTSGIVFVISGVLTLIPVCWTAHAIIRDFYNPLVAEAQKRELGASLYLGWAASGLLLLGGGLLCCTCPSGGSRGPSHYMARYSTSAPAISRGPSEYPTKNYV
Description: FACS.

B1: PiH2008 (antibody)
heavy: QVQLVQSGAEVKKPGASVKVSCKASGYTFTDYNMHWVRQAPGQSLEWIGYINPNNGATNYNQKFKGRATITVDKSASTAYMELSSLRSEDTAVYNCARWDGYVYYYGMDYWGQGTLVTVSS[human IgG1 constant region not spelt out]
light: DIQMTQSPSSLSASVGGRVTITCKASDHINNWLAWYQQKPGKAPKLLISGATSLETGVPSRFSGSGSGTDYTFTISSLQPEDIATYYCQQYWNTPYTFGGGTKLEIKRTVAAPSVFIFPPSDEQLKSGTASVVCLLNNFYPREAKVQWKVDNALQSGNSQESVTEQDSKDSTYSLSSTLTLSKADYEKHKVYACEVTHQGLSSPVTKSFNRGEC
For B1, the EC50 with mouse CLDN6 was 7.76 µg/mL; in test [1], 1.16 µg/mL.

B2: PiH2004 (antibody)
heavy: QVQLVQSGAEVKKPGASVKVSCKASGYTFTDYNMHWVRQAPGQSLEWIGYINPNNGATNYNQKFKGRATITVDKSASTAYMELSSLRSEDTAVYNCARWDGYVYYYGMDYWGQGTLVTVSS[human IgG1 constant region not spelt out]
light: DIQMTQSPSSLSASVGDRVTITCKASDHINNWLAWYQQKPGKAPKLLISGATSLETGVPSRFSGSGSGTDYTFTISSLQPEDIATYYCQQYWNTPYTFGGGTKLEIKRTVAAPSVFIFPPSDEQLKSGTASVVCLLNNFYPREAKVQWKVDNALQSGNSQESVTEQDSKDSTYSLSSTLTLSKADYEKHKVYACEVTHQGLSSPVTKSFNRGEC
For the molecule B2, the figures for the EC50 (with mouse CLDN6; in test [1]) were 19 µg/mL and 1.32 µg/mL, respectively.
